From the supplement of paper PMC10126150
Values marked as one replicate rest on one cluster of the flow cell; about a third of the high ones do not repeat.
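Note: ATP exposure 15 min at 22 °C before imaging.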

Each sequence was assayed on ATP (assay: switch fluorescence ratio, 500 uM ATP over buffer (Cy3 cluster intensity, sum of 5 cycles each) (fold (ratio)); higher = stronger signal-on switching upon ATP binding; sequences stand for … in TCGTCGGCAGCGTCAGATGTGTATAAGAGACAGTTTTTTTTTTTTTTTTTTTTTTTTT…TC). Conditions: aptamer strand: ATP DNA aptamer (quencher-CACCTGGGGGAGTATTGCGGAGGAAGG + anchor), 100 nM annealed; ATP concentration: 500 uM; one replicate.
How it was run: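 The fluorescence ratio divides summed target-cycle Cy3 intensity by summed buffer-cycle Cy3 intensity for each cluster and is averaged per switch-domain sequence. Cy3-labelled switching-strand clusters on a modified Illumina MiSeq flow-cell were annealed to 100 nM quencher-labelled ATP aptamer, then imaged in selection buffer and again after 15 min with 500 uM ATP at 22 °C. Five such cycles were run, with NaOH stripping and re-annealing between them, and clusters outside 100-1000 RFU were excluded.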
AGAAGATGGG showed a switch fluorescence ratio of 0.975. AGAAGCACGC gave a switch fluorescence ratio of 1.17. With AGAAGCTGCG the switch fluorescence ratio was 1.01. Sequence AGAAGGGCGT has a switch fluorescence ratio of 0.974. AGAAGTCGGC was tested, and the switch fluorescence ratio was 1.07. In the case of AGAAGTGGGC, the switch fluorescence ratio is reported as 1.03. AGAATACGAT showed a switch fluorescence ratio of 1.03. Sequence AGAATCATAA has a switch fluorescence ratio of 0.973. Work on AGAATCATCG yielded a switch fluorescence ratio of 0.964. AGAATCGCGT was tested, and the switch fluorescence ratio was 1.04. AGAATCTCCA showed a switch fluorescence ratio of 1.03. Sequence AGAATCTTTT has a switch fluorescence ratio of 1. AGAATGTAGC showed a switch fluorescence ratio of 0.946. AGAATGTTGT gave a switch fluorescence ratio of 1. AGAATTAGTA gave a switch fluorescence ratio of 1.01. Sequence AGAATTATTC has a switch fluorescence ratio of 0.972. AGACACGGT showed a switch fluorescence ratio of 1.01. AGACAGATGG showed a switch fluorescence ratio of 1.1. Sequence AGACAGGGTA has a switch fluorescence ratio of 1.03. In the case of AGACATAGT, the switch fluorescence ratio is reported as 1.03. AGACATGGTA was tested, and the switch fluorescence ratio was 1.03. Sequence AGACCATTTA has a switch fluorescence ratio of 0.994. Sequence AGACCCGTA has a switch fluorescence ratio of 1.04. With AGACGAAAAA the switch fluorescence ratio was 1.04. AGACGACAAA showed a switch fluorescence ratio of 1.15. Sequence AGACGACAGC has a switch fluorescence ratio of 0.974. Work on AGACGACCCA yielded a switch fluorescence ratio of 1.44. AGACGAGATG gave a switch fluorescence ratio of 1.02. For AGACGAGCTG, the switch fluorescence ratio was 0.965. AGACGGGCAG gave a switch fluorescence ratio of 1.04. For AGACGGGCTT, the switch fluorescence ratio was 0.994. For AGACGTACAG, the switch fluorescence ratio was 1.07. AGACTCAGGT showed a switch fluorescence ratio of 1.01. For AGACTGCCGG, the switch fluorescence ratio was 0.931. In the case of AGACTGCGCG, the switch fluorescence ratio is reported as 1.04. In the case of AGACTGGTT, the switch fluorescence ratio is reported as 0.998. With AGACTTAGCG the switch fluorescence ratio was 0.928. AGACTTTAGA gave a switch fluorescence ratio of 1.06. Sequence AGAGAAATGG has a switch fluorescence ratio of 0.995. Work on AGAGAAGTTA yielded a switch fluorescence ratio of 1.01. With AGAGAATGT the switch fluorescence ratio was 0.976. In the case of AGAGAATTGC, the switch fluorescence ratio is reported as 0.966. With AGAGACCTGC the switch fluorescence ratio was 0.991. For AGAGACGGGA, the switch fluorescence ratio was 1.1. Sequence AGAGATTTTA has a switch fluorescence ratio of 1. With AGAGCCAGTT the switch fluorescence ratio was 0.956. AGAGCCCCGG showed a switch fluorescence ratio of 0.995. AGAGCCGAAA showed a switch fluorescence ratio of 0.971. AGAGCCTAA showed a switch fluorescence ratio of 1.05. Sequence AGAGCCTTTT has a switch fluorescence ratio of 0.971. With AGAGCGTCTC the switch fluorescence ratio was 1.05. AGAGCTGATA showed a switch fluorescence ratio of 1.03. Work on AGAGCTTATC yielded a switch fluorescence ratio of 1.05. Sequence AGAGCTTTCT has a switch fluorescence ratio of 0.977. AGAGGACCTT was tested, and the switch fluorescence ratio was 1.15. For AGAGGGAGCG, the switch fluorescence ratio was 0.96. Sequence AGAGGGATTC has a switch fluorescence ratio of 0.988. For AGAGGGGA, the switch fluorescence ratio was 0.99. Sequence AGAGGTAAAA has a switch fluorescence ratio of 1. AGAGGTACTT was tested, and the switch fluorescence ratio was 0.994. Work on AGAGGTAGTC yielded a switch fluorescence ratio of 1.05. AGAGGTATAT gave a switch fluorescence ratio of 0.995. In the case of AGAGGTCTGC, the switch fluorescence ratio is reported as 0.961. AGAGGTGCGT gave a switch fluorescence ratio of 0.981. AGAGGTGGC showed a switch fluorescence ratio of 1.1. AGAGGTTACT showed a switch fluorescence ratio of 0.994. In the case of AGAGTAAAA, the switch fluorescence ratio is reported as 1.11. With AGAGTAATTT the switch fluorescence ratio was 0.997. Work on AGAGTACCTG yielded a switch fluorescence ratio of 1.06. AGAGTATATA was tested, and the switch fluorescence ratio was 1.06. AGAGTCGGAT showed a switch fluorescence ratio of 1.02. AGAGTCTCGT showed a switch fluorescence ratio of 0.983. Work on AGAGTGAGA yielded a switch fluorescence ratio of 1.02. AGAGTGGTCC was tested, and the switch fluorescence ratio was 0.893. Work on AGAGTGTGGT yielded a switch fluorescence ratio of 0.954. For AGAGTTAAGC, the switch fluorescence ratio was 0.968. With AGAGTTCGTC the switch fluorescence ratio was 0.92. For AGAGTTGTCA, the switch fluorescence ratio was 1.06. In the case of AGATAACGCT, the switch fluorescence ratio is reported as 0.996. Sequence AGATAACTGT has a switch fluorescence ratio of 1.06. In the case of AGATACTTGC, the switch fluorescence ratio is reported as 1.05. In the case of AGATAGCCAC, the switch fluorescence ratio is reported as 1.03. Sequence AGATAGCTGT has a switch fluorescence ratio of 0.983. With AGATAGCTTT the switch fluorescence ratio was 0.924. Sequence AGATAGGTAC has a switch fluorescence ratio of 1.01.
